Assay results published in the supplement of paper PMC10369915.
Some of the results follow. No stated cut-off is given here; in the data, active = 3.2 or more and inactive = the rest. The signal is at background level for most entries.

Assays:
Assay in all cases: enrichment score (SH2-bound / input frequency) (ratio); bacterial display of known human phosphotyrosine sites (pTyr-Var adds point mutants) read by sequencing; higher = stronger binding; tyrosines were phosphorylated by kinases first
Conditions in all cases: peptide library: pTyr-Var
SHP2 C-SH2 domain E139D = target: SHP2 C-SH2 domain E139D
[1] = target: SHP2 C-SH2 domain wild-type
SHP2 N-SH2 domain L43F = target: SHP2 N-SH2 domain L43F
SHP2 N-SH2 domain T42A = target: SHP2 N-SH2 domain T42A
SHP2 N-SH2 domain T52S = target: SHP2 N-SH2 domain T52S
[2] = target: SHP2 N-SH2 domain wild-type

Measured: enrichment score
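Further: displayed peptides selected on beads carrying the immobilized SH2 domain, with library peptides lacking any tyrosine serving as negative controls.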

EGLKVYINGTL [ADGRD1_Y183_V184I]
inactive: SHP2 C-SH2 domain E139D 0.871 | [1] 1.41 | SHP2 N-SH2 domain L43F 0.999 | SHP2 N-SH2 domain T42A 1.05 | SHP2 N-SH2 domain T52S 0.567 | [2] 1.47

LHVKMYNFLRS [ADGRG7_Y760_R756H]
inactive: SHP2 C-SH2 domain E139D 0.91 | [1] 1.38 | SHP2 N-SH2 domain L43F 1 | SHP2 N-SH2 domain T42A 0.849 | SHP2 N-SH2 domain T52S 1.14 | [2] 0.855

GVTLLYYGRDN [ADGRD1_Y85_Y89D]
inactive: SHP2 C-SH2 domain E139D 1.91 | [1] 1.95 | SHP2 N-SH2 domain L43F 1.83 | SHP2 N-SH2 domain T42A 1.84 | SHP2 N-SH2 domain T52S 2.37 | [2] 1.61

AVAFVYFKSIG [ADGRL4_Y301_YF]
inactive: SHP2 C-SH2 domain E139D 1.61 | [1] 1.56 | SHP2 N-SH2 domain L43F 1.74 | SHP2 N-SH2 domain T42A 1.47 | SHP2 N-SH2 domain T52S 1.6 | [2] 1.6

IMVFVYCRVFQ [ADRB2_Y219_S220C]
inactive: SHP2 C-SH2 domain E139D 1.67 | [1] 1.64 | SHP2 N-SH2 domain L43F 1.33 | SHP2 N-SH2 domain T42A 1.31 | SHP2 N-SH2 domain T52S 1.72 | [2] 1.49

AEPPDYSPVTH [ADGRG2_Y285]
inactive: SHP2 C-SH2 domain E139D 0.539 | [1] 0.552 | SHP2 N-SH2 domain L43F 0.504 | SHP2 N-SH2 domain T42A 0.477 | SHP2 N-SH2 domain T52S 0.649 | [2] 0.729

AEPPDYSPVTQ [ADGRG2_Y285_H290Q]
inactive: SHP2 C-SH2 domain E139D 0.705 | [1] 0.523 | SHP2 N-SH2 domain L43F 0.579 | SHP2 N-SH2 domain T42A 0.58 | SHP2 N-SH2 domain T52S 0.504 | [2] 0.54

LPKEQYLFTKE [AFG3L2_Y614_YF]
inactive: SHP2 C-SH2 domain E139D 1.11 | [1] 0.84 | SHP2 N-SH2 domain L43F 1.15 | SHP2 N-SH2 domain T42A 0.612 | SHP2 N-SH2 domain T52S 0.684 | [2] 0.664

VAFVFYKSIGP [ADGRL4_Y302_YF]
inactive: SHP2 C-SH2 domain E139D 0.797 | [1] 0.967 | SHP2 N-SH2 domain L43F 0.842 | SHP2 N-SH2 domain T42A 0.894 | SHP2 N-SH2 domain T52S 0.532 | [2] 1.09

IQVDAYFSPIH [ADSL_Y432]
inactive: SHP2 C-SH2 domain E139D 1.28 | [1] 1.24 | SHP2 N-SH2 domain L43F 1.28 | SHP2 N-SH2 domain T42A 1.27 | SHP2 N-SH2 domain T52S 0.973 | [2] 1.11

TEALFYTDDPA [ADPRS_Y75_T79P_YF]
inactive: SHP2 C-SH2 domain E139D 0.9 | [1] 1.36 | SHP2 N-SH2 domain L43F 1.41 | SHP2 N-SH2 domain T42A 0.962 | SHP2 N-SH2 domain T52S 1.07 | [2] 1

SDPIIYTLENI [ADGRE1_Y534]
inactive: SHP2 C-SH2 domain E139D 0.815 | [1] 0.985 | SHP2 N-SH2 domain L43F 0.87 | SHP2 N-SH2 domain T42A 0.699 | SHP2 N-SH2 domain T52S 0.864 | [2] 0.936

VAFVYYKSIGP [ADGRL4_Y302]
inactive: SHP2 C-SH2 domain E139D 0.763 | [1] 0.962 | SHP2 N-SH2 domain L43F 0.766 | SHP2 N-SH2 domain T42A 0.866 | SHP2 N-SH2 domain T52S 0.659 | [2] 0.92

IQVNAYFSPIH [ADSL_Y432_D430N]
inactive: SHP2 C-SH2 domain E139D 1.78 | [1] 2.14 | SHP2 N-SH2 domain L43F 2.06 | SHP2 N-SH2 domain T42A 1.66 | SHP2 N-SH2 domain T52S 1.87 | [2] 2.25

AKKKMYSLKTK [AGXT_Y231_R233L]
inactive: SHP2 C-SH2 domain E139D 2.1 | [1] 1.61 | SHP2 N-SH2 domain L43F 2.47 | SHP2 N-SH2 domain T42A 2.28 | SHP2 N-SH2 domain T52S 2.73 | [2] 1.7

RMSSSYPTGLA [ADM_Y52]
inactive: SHP2 C-SH2 domain E139D 0.597 | [1] 0.5 | SHP2 N-SH2 domain L43F 0.473 | SHP2 N-SH2 domain T42A 0.239 | SHP2 N-SH2 domain T52S 0.433 | [2] 0.832

AKKKMYSHKTK [AGXT_Y231_R233H]
inactive: SHP2 C-SH2 domain E139D 2.81 | [1] 1.66 | SHP2 N-SH2 domain L43F 2.21 | SHP2 N-SH2 domain T42A 1.7 | SHP2 N-SH2 domain T52S 2.36 | [2] 1.8

IMVFVYSRVFQ [ADRB2_Y219]
inactive: SHP2 C-SH2 domain E139D 1.77 | [1] 1.43 | SHP2 N-SH2 domain L43F 1.46 | SHP2 N-SH2 domain T42A 1.38 | SHP2 N-SH2 domain T52S 1.46 | [2] 1.48

GGTPLYRDRQG [AGXT_Y194_M195R]
inactive: SHP2 C-SH2 domain E139D 0.587 | [1] 0.562 | SHP2 N-SH2 domain L43F 0.583 | SHP2 N-SH2 domain T42A 0.543 | SHP2 N-SH2 domain T52S 0.67 | [2] 0.681
